Experimental data: PubChem BioAssay AID588591 (National Center for Advancing Translational Sciences (NCATS), 2011)
Hit rate of the full screen: of about 390,000 compounds, about 4,700 (1.2%) were called active. Inconclusive results, whose numbers are uncertain, are shown with a selection of clear calls. Calls follow the shape of the dose curve; as a rule, active = well fitted inhibition curve with a large enough effect; inconclusive = small, poorly fitted or top-dose-only effect, or another doubt; inactive = no such curve, though single readings can be large or run the other way. Potencies beside an inconclusive call are fits to weak or partial responses and may not hold up.

These compounds were tested against DNA polymerase eta (Homo sapiens) (UniProt Q9Y253) (assay: qHTS for Inhibitors of Polymerase Eta). Conditions: recombinant Pol eta, fluorescent DNA replication assay; series mostly up to 114 µM.
Sequence of UniProt Q9Y253 (Q9Y253 whole entry, looked up): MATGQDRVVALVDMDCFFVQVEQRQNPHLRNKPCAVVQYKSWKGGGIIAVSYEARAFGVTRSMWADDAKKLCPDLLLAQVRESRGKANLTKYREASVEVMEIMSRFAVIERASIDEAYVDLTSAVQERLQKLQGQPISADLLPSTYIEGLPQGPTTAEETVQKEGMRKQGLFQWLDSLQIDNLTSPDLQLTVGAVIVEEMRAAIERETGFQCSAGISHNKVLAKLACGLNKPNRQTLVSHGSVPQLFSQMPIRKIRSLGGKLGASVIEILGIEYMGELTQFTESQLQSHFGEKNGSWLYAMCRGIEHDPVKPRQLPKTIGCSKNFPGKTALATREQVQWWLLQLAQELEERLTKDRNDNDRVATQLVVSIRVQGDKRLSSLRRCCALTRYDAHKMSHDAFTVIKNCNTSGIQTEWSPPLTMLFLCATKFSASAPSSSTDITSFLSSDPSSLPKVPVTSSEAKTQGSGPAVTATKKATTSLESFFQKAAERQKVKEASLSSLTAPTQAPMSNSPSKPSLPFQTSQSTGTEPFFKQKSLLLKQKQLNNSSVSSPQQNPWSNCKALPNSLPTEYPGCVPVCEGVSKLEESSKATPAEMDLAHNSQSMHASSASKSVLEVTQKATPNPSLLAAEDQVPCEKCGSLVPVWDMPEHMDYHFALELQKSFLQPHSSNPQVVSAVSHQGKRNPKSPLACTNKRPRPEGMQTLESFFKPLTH
Outline: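 Pol eta at 10 nM preincubated with compounds 15 min at room temperature; reaction started with fluorescent substrate (50 nM final) and read kinetically at 0 and 10 min.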
Potency is read from the fitted curve at half-maximal effect; tags tell the direction and shape of the fitted curve.

With `COc1ccccc1-n1c(-c2cc(-c3ccco3)[nH]n2)n[nH]c1=S` as the compound, how does the Potency read?
Its Potency is active: 50.1 µM.

`Cc1ccc(S(=O)(=O)Cc2ccc(C(=O)NC3CCCC3)o2)cc1` was tested. Which Potency did it give?
Its Potency is inconclusive: 39.8 µM [inhibitor, full curve].

`O=C(CNC(=O)c1cccs1)NCC(=O)OCc1ccccc1Cl` was tested. Which Potency did it give?
The Potency was “inactive”.

With `COc1ccccc1C(=O)Nc1cccc(C(=O)OCc2cc(=O)n3cc(C)sc3n2)c1` as the compound, how does the Potency read?
Its Potency is “inactive”.

For `CCCCC(=O)NC1CC(=O)N(c2ccc3c(c2)OCCO3)C1` (configuration not stated), which Potency is on record?
The Potency was “inactive”.

How did the Potency turn out when `CC(=O)c1sc2nc(-c3cccs3)ccc2c1N` was run?
The Potency was inconclusive: 17.8 µM [inhibitor, partial curve, poor fit].

With `COc1ccc(-c2nn(-c3ccccc3)cc2C2CC(c3cccs3)=NN2C(=O)CCCC(=O)O)cc1` (configuration not stated) as the compound, how does the Potency read?
Its Potency is “inactive”.

Which Potency does the source give for `COc1cccc(-n2c(=O)c3sc4ccccc4c3n(CC(=O)NC3CCCCC3)c2=O)c1` here?
The Potency was “inactive”.

`CC(=O)c1c(C)[nH]c(C(=O)Nc2ccc(C)c(S(=O)(=O)Nc3ccc(C)cc3C)c2)c1C` was tested. Which Potency did it give?
Its Potency is inconclusive: 79.4 µM [inhibitor, partial curve, poor fit].

With `COC(=O)CNC(=O)c1ccc(NS(=O)(=O)c2cc([N+](=O)[O-])ccc2Cl)cc1` as the compound, how does the Potency read?
The Potency was active: 31.6 µM.

Which Potency does the source give for `O=C(c1ccccc1)c1ccc(O)c(O)c1O` here?
The Potency was active: 8.91 µM.

`N#CC1=C(N)OC2=C(C(=O)CC(c3ccccc3)C2)C1c1ccoc1` (configuration not stated) was tested. Which Potency did it give?
Its Potency is inconclusive: 39.8 µM [inhibitor, partial curve, poor fit].

`COc1ccc(/C=C2\C(=O)NC(=S)N2C(=O)c2ccc(F)cc2)cc1` was tested. Which Potency did it give?
Its Potency is active: 25.1 µM.

For `CCOc1ccc(OCC(=O)Nc2ccc(S(=O)(=O)Nc3cc(C)nc(C)n3)cc2)cc1`, which Potency is on record?
The Potency was inconclusive: 20 µM [inhibitor, single point].

With `O=C(COc1ccccc1[N+](=O)[O-])Nc1cccc(S(=O)(=O)NC2=NCCCCC2)c1` as the compound, how does the Potency read?
Its Potency is active: 20 µM.

Which Potency does the source give for `Cc1ccc(C)c(NC(=O)Cn2cc(C(=O)c3ccco3)c3ccccc32)c1` here?
Its Potency is inconclusive: 79.4 µM [inhibitor, partial curve].

Which Potency does the source give for `COc1ccc(N(CC(=O)Nc2cccc(Cl)c2C)S(=O)(=O)c2c(C)nn(C)c2C)cc1` here?
The Potency was inconclusive: 50.1 µM [inhibitor, partial curve, poor fit].

For `Cc1ccc2c(CC(=O)N3CCN(S(=O)(=O)c4cccs4)CC3)coc2c1`, which Potency is on record?
The Potency was inconclusive: 0.355 µM [inhibitor, partial curve, poor fit].

`COc1ccccc1-c1nc2c(c(SCC(=O)Nc3ccc(C)c(C)c3)n1)Cc1c(CO)cnc(C)c1O2` was tested. Which Potency did it give?
The Potency was inconclusive: 50.1 µM [inhibitor, partial curve, poor fit].

How did the Potency turn out when `CC(C)N(C(=O)CSc1nnc(NC(=O)c2ccco2)s1)C(C)C` was run?
The Potency was inconclusive: 89.1 µM [inhibitor, partial curve, poor fit].

Which Potency does the source give for `Cc1oc(-c2ccccc2F)nc1CN1CCC(C(=O)NC2CC2)CC1` here?
The Potency was inconclusive: 25.1 µM [inhibitor, partial curve, poor fit].

How did the Potency turn out when `O=C(Nc1ccc(N2CCN(C(=O)c3ccccc3)CC2)cc1)c1ccc([N+](=O)[O-])o1` was run?
Its Potency is inconclusive: 17.8 µM [inhibitor, full curve, poor fit].

Which Potency does the source give for `O=C(CCc1nc2sc3c(c2c(=O)[nH]1)CCCC3)Nc1ccccc1Cl` here?
The Potency was inconclusive: 39.8 µM [inhibitor, partial curve].

`COCCN1Cc2cccc(C(=O)NCc3ccc4c(c3)OCO4)c2C1=O` was tested. Which Potency did it give?
Its Potency is inconclusive: 3.98 µM [inhibitor, partial curve, poor fit].

For `Cc1ccc(CN2C(=O)N/C(=C\c3cccn3-c3cccc(C(=O)O)c3)C2=O)cc1`, which Potency is on record?
Its Potency is active: 8.91 µM.

`COc1ccc(C)c2sc(N(Cc3cccnc3)C(=O)C3CCCCC3)nc12` was tested. Which Potency did it give?
The Potency was “inactive”.

`CCCCCOc1c(Cl)cc(C(=O)N(Cc2ccc(C)o2)C2CCS(=O)(=O)C2)cc1Cl` (configuration not stated) was tested. Which Potency did it give?
Its Potency is inconclusive: 22.4 µM [inhibitor, partial curve, poor fit].

How did the Potency turn out when `O=C(NCc1ccco1)c1ccccc1NS(=O)(=O)c1ccc(Cl)s1` was run?
The Potency was inconclusive: 31.6 µM [inhibitor, full curve].

With `Cc1ccccc1Nc1c(-c2ccco2)nc2c(C)cccn12` as the compound, how does the Potency read?
The Potency was “inactive”.

`COc1ccccc1C(=O)COC(=O)CNC(=O)c1ccc(Br)o1` was tested. Which Potency did it give?
Its Potency is “inactive”.

How did the Potency turn out when `CC(C)C(OC(=O)C1=Cc2ccccc2OC1)C(=O)NCC1CCCO1` (configuration not stated) was run?
The Potency was inconclusive: 35.5 µM [inhibitor, partial curve, poor fit].

For `COc1cc(C(=O)Nc2nc3ccc(S(C)(=O)=O)cc3s2)cc(OC)c1C`, which Potency is on record?
The Potency was “inactive”.

How did the Potency turn out when `COc1ccc(C(=O)N2c3ccccc3C(C)(c3ccc(Cl)cc3)CC2(C)C)cc1` (configuration not stated) was run?
Its Potency is “inactive”.

How did the Potency turn out when `COc1ccc(Cc2nnc(Nc3ccccc3)s2)cc1Br` was run?
Its Potency is inconclusive: 79.4 µM [inhibitor, partial curve].

Which Potency does the source give for `O=S1(=O)c2ccccc2N(Cc2cccc(C(F)(F)F)c2)c2ccccc21` here?
Its Potency is “inactive”.

Which Potency does the source give for `CCn1c(SCC(=O)Nc2ccccc2Br)nnc1-c1cnccn1` here?
The Potency was inconclusive: 79.4 µM [inhibitor, partial curve, poor fit].

How did the Potency turn out when `COc1ccc(NC(=O)N(C)[C@H]2C[C@H]3c4[nH]c5ccccc5c4CCN3C(=O)[C@H]2CO)cc1` was run?
Its Potency is “inactive”.

How did the Potency turn out when `Cc1c(C)c2c(OCC(=O)N3CCC(C(N)=O)CC3)cc3c(c2oc1=O)CCC(C)(C)O3` was run?
Its Potency is “inactive”.

For `O=C(CSc1nc2nc(-c3cccs3)cc(C(F)(F)F)c2c(=O)[nH]1)NCc1ccco1`, which Potency is on record?
The Potency was active: 17.8 µM.

For `CC(C)C(=O)COc1c2occc2cc2ccc(=O)oc12`, which Potency is on record?
The Potency was inconclusive: 20 µM [inhibitor, single point].

With `CN(C)CCNC(=O)c1cccc2nc3c(ccc4ccccc43)nc12` as the compound, how does the Potency read?
Its Potency is inconclusive: 12.6 µM [inhibitor, partial curve, poor fit].

`COC(=O)c1ccc2c(c1)N(Cc1ccc(F)cc1)C(=O)c1ccccc1S2` was tested. Which Potency did it give?
Its Potency is “inactive”.

`O=C(O)c1cc(N=Cc2c(O)c3ccccc3oc2=O)ccc1O` was tested. Which Potency did it give?
Its Potency is inconclusive: 17.8 µM [inhibitor, full curve].

How did the Potency turn out when `CCCCN(CC)C(=O)Cc1c(C(=O)O)[nH]c2ccc(Cl)cc12` was run?
Its Potency is “inactive”.

With `Cc1coc2c(C)c3oc(=O)c(CCC(=O)NCCc4ccccc4)c(C)c3cc12` as the compound, how does the Potency read?
The Potency was “inactive”.

For `O=C1N=C(N2CCCC2C(=O)O)S/C1=C\c1ccco1` (configuration not stated), which Potency is on record?
Its Potency is inconclusive: 39.8 µM [inhibitor, partial curve].

How did the Potency turn out when `O=C(O)c1c[nH]c2c([N+](=O)[O-])cccc2c1=O` was run?
Its Potency is inconclusive: 6.31 µM [inhibitor, full curve, poor fit].

`COc1cc(NS(=O)(=O)c2ccc(NC(=O)/C(=C/c3ccccc3Cl)NC(=O)c3ccccc3)cc2)nc(OC)n1` was tested. Which Potency did it give?
The Potency was inconclusive: 89.1 µM [inhibitor, partial curve, poor fit].

For `COc1cc(N(C(C)=O)c2ccc(O)c(C(=O)O)c2)c2ncccc2c1`, which Potency is on record?
Its Potency is active: 50.1 µM.

With `CN(Cc1c(C(=O)N2CCc3ccccc3C2)nc2ccc(Cl)cn12)C(C1CC1)C1CC1` as the compound, how does the Potency read?
The Potency was inconclusive: 89.1 µM [inhibitor, partial curve, poor fit].

For `O=c1[nH][nH]c2cc(=O)n(-c3ccc(Cl)cc3)nc12`, which Potency is on record?
Its Potency is inconclusive: 56.2 µM [inhibitor, partial curve, poor fit].

For `O=C1CC2(CON=C2c2ccc(F)cc2)C(=O)N1c1ccc(F)cc1` (configuration not stated), which Potency is on record?
The Potency was inconclusive: 25.1 µM [inhibitor, partial curve].

`Cc1ccc(N2CCN(C(=O)c3c4c(nc5ccccc35)C(=O)N(C3CCCCC3)C4)CC2)c(C)c1` was tested. Which Potency did it give?
Its Potency is “inactive”.

`COc1ccc(-c2cnnc(N/N=C/c3ccc(-c4ccc([N+](=O)[O-])cc4)o3)n2)cc1` was tested. Which Potency did it give?
The Potency was inconclusive: 6.31 µM [inhibitor, full curve, poor fit].

How did the Potency turn out when `CN(C)c1ccc2nc3ccc(=[N+](C)C)cc-3sc2c1` was run?
Its Potency is inconclusive: 56.2 µM [inhibitor, partial curve, poor fit].

`Cc1n[nH]c(C)c1S(=O)(=O)N1CCCC(C(=O)Nc2ccc(Cl)cc2)C1` (configuration not stated) was tested. Which Potency did it give?
Its Potency is inconclusive: 39.8 µM [inhibitor, full curve, poor fit].

For `Cc1cnn(-c2ccc3nnc(-c4ccc(Br)cc4)n3n2)c1`, which Potency is on record?
Its Potency is inconclusive: 11.2 µM [inhibitor, partial curve].

Which Potency does the source give for `CCc1ccccc1OCC(=O)Nc1cc(S(=O)(=O)N(CC)CC)ccc1N1CCOCC1` here?
The Potency was “inactive”.

`Cc1ccc(-c2cc(C(=O)NCc3cnn(C)c3)c3cc(Br)ccc3n2)cc1` was tested. Which Potency did it give?
The Potency was active: 79.4 µM.

For `O=C1N=c2ccccc2=C1c1sc(Nc2ccc(O)cc2)nc1O`, which Potency is on record?
Its Potency is active: 31.6 µM.

For `Cc1cccc(C)c1NC(=O)C1CCCCN1C` (configuration not stated), which Potency is on record?
Its Potency is inconclusive: 89.1 µM [inhibitor, single point].

`Cc1ccc(NC(=O)CSc2ccccc2NC(=O)c2cccc(Cl)c2)cc1Cl` was tested. Which Potency did it give?
The Potency was inconclusive: 17.8 µM [inhibitor, partial curve, poor fit].

With `Cc1cc(Br)c2c(c1)=C(c1sc(N3CCCCCC3)nc1O)C(=O)N=2` as the compound, how does the Potency read?
The Potency was inconclusive: 17.8 µM [inhibitor, partial curve, poor fit].

Which Potency does the source give for `CC[C@H](C)/C=C(C)/C=C/C(=O)Cc1cc(O)c(C)c(O)c1C=O` here?
The Potency was active: 50.1 µM.

How did the Potency turn out when `Cc1cc[n+](-c2[nH]c(=O)sc2/C=N/NC([S-])=Nc2ccccc2)cc1` was run?
Its Potency is active: 22.4 µM.

How did the Potency turn out when `CN(CC(=O)Nc1cccc(F)c1)C(=O)c1ccc(C(=O)c2ccccc2)cc1` was run?
The Potency was “inactive”.

For `O=c1[nH]c2c(s1)C(c1ccco1)C1C3CCC(C3)C1S2` (configuration not stated), which Potency is on record?
The Potency was inconclusive: 15.8 µM [inhibitor, partial curve, poor fit].
